# The campaign covered roughly 50,000 compounds. About 800 (1.6%) showed an effect of 50% or more. Some of the results follow.
# Target: Bcl-2-like protein 10 (Homo sapiens) (UniProt Q9HD36)
# Assay: TR3 peptide-Bcl-B binding displacers, biochemical primary FP assay, phenotype converters (AID 1240);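 note: 0% = Bcl-B with tracer peptide and DMSO and 100% = tracer peptide lacking Bcl-B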
# Conditions: GST-Bcl-B / FITC-TR3 peptide fluorescence polarization; stronger effect = higher value; compound at 3.75 mg/L
# Sequence of UniProt Q9HD36 (Q9HD36 whole entry, looked up): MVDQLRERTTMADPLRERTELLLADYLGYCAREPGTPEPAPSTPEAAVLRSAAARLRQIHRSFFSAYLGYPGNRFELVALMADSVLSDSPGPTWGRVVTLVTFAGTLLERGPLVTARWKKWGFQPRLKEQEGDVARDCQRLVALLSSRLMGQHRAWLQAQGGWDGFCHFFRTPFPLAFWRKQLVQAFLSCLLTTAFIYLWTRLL
row,Compound,displacement
1,CCOC(=O)C1=C(C)N=c2s/c(=C\c3ccccn3)c(=O)n2C1c1ccc(OC)c(OC)c1 (configuration not stated),42.1%
2,Cc1cc(/C=C2\C(=O)NC(=O)N(c3cccc(F)c3)C2=O)c(C)n1-c1cccnc1,24.3%
3,Cc1cccc(OCCNc2cc(N3CCN(C)CC3)ccc2[N+](=O)[O-])c1,-0.7%
4,CCOc1cc(/C=N\NC(=O)c2ccccc2Cl)cc([N+](=O)[O-])c1O,9.4%
5,COc1cc(CN2CCN(Cc3ccc(Cl)cc3)CC2)cc(OC)c1O,4.5%
6,CCOc1ccc(/C=C2/SC(=S)N(CC(=O)O)C2=O)cc1,12.7%
7,Cc1ccccc1C1(c2ccccc2C)CC1C(=O)Nc1cccc([N+](=O)[O-])c1 (configuration not stated),-0.7%
8,O=C1NC(=S)NC(=O)C1=Cc1ccc(OCc2ccc3ccccc3c2)c(Br)c1,-15.1%
9,CC1(C)CC(NS(=O)(=O)c2cccc([N+](=O)[O-])c2)CC(C)(C)N1,0.1%
10,CC1=NN(c2ccccc2)C(=O)C1/C=C1\C(=O)NC(=O)N(c2ccc(C)cc2)C1=O (configuration not stated),6.6%
11,CCOC(=O)CCc1c(C)nc2c(C)c(-c3ccccc3)[nH]n2c1=O,7%
12,C=CCN1C(=O)/C(=C\c2ccccc2OCc2cccc3ccccc23)SC1=S,2.8%
13,O=C(Nc1cccc(-c2nc3ccccc3[nH]2)c1)c1ccncc1,17.1%
14,CCCOc1ccc(C(=O)Nc2ccc(C(C)CC)cc2)cc1 (configuration not stated),28.8%
15,Cc1ccccc1-c1cc2nc(C)c(Cl)c(=O)n2[nH]1,12%
16,CC1CCN(S(=O)(=O)c2cccs2)CC1,-0.9%
17,O=C1c2ccc3c4c(ccc(c24)C(=O)N1/N=C/c1ccccc1)CC3,7.7%
18,CC(=O)Nc1ccc(S(=O)(=O)Nc2ccc3c(c2)OCCO3)cc1,-1.3%
19,COc1ccc(N(CC(=O)N/N=C/c2cccc3ccccc23)S(=O)(=O)c2ccccc2)cc1,2.7%
20,CC(C)c1ccc(C2/C(=C(\O)c3ccccc3)C(=O)C(=O)N2Cc2cccnc2)cc1 (configuration not stated),-1.7%
21,CCN(CC)CC(O)Cn1c2c(c3ccccc31)CCCC2=O (configuration not stated),5.1%
22,Cc1ccc2oc(-c3cc(N)ccc3O)nc2c1,5.4%

row,Compound,displacement
1,Oc1cnc(Nc2nc3ccccc3s2)[nH]1,2.2%
2,CCOc1cc(/C=C2/SC(=S)N(c3ccccc3)C2=O)ccc1OC(=O)c1ccco1,9.9%
3,O=C(Nc1ccc(I)cc1Cl)c1ccco1,-8.5%
4,CCOC(=O)C(CCC(=O)CC(C)C)C(=O)OCC,-4%
5,COc1ccc(Br)cc1/C=C1\C(=O)NC(=S)N(c2ccc(C)cc2)C1=O,-9.7%
6,O=C(Nc1ccc(N2CCOCC2)cc1)c1ccc(F)cc1,11.2%
7,CCCOc1c(I)cc(C2C3=C(CC(C)(C)CC3=O)OC3=C2C(=O)CC(C)(C)C3)cc1OC,15.1%
8,CCN1C(=O)/C(=c2/s/c(=C3\C=Cc4ccccc4N3CC)c(=O)n2CC)SC1=S,14.9%
9,CC(C)(C)C(=O)CC(=O)c1ccccc1,4.4%
10,Cc1ccc(Cl)cc1NC(=O)CSCC(=O)Nc1ccc2ccccc2c1,-0.2%
11,Cc1cc(/C=N/NC(=O)CC#N)c(C)n1-c1ccc(Cl)cc1,-12.8%
12,COc1ccccc1/C=C1\SC(=S)N(NC(=O)c2cccc([N+](=O)[O-])c2)C1=O,-5.7%
13,O=C1c2ccccc2NC(c2ccccc2F)N1c1ccc(Cl)cc1 (configuration not stated),9.6%
14,O=C(Nc1cc(Oc2ccccc2)cc([N+](=O)[O-])c1)c1cccc(Cl)c1,1%
15,CCN(CC)c1ccc(N2C(=O)/C(=C/c3ccc(C)cc3)SC2=S)cc1,-7.6%
16,Cc1ccc(-n2nc3ccc(NC(=O)c4cc(Cl)ccc4I)cc3n2)cc1,7.8%
17,CCC(=O)Nc1ccc(NC(=O)COc2ccc(I)cc2)cc1,-2.1%
18,O=C1CC(N2CCN(CCO)CC2)C(=O)N1c1ccccc1 (configuration not stated),7.5%
19,Oc1ccccc1-c1cc(-c2ccco2)[nH]n1,9.2%
20,O=C1CC(c2ccc(O)cc2)c2ccc3ccccc3c2N1 (configuration not stated),-7.4%
21,COc1ccc(COC(=O)C2=C(C)NC3=C(C(=O)CC(C)(C)C3)C2c2coc3ccc(C)cc3c2=O)cc1 (configuration not stated),-3.3%
22,CCOC(=O)N1CCN(C(=O)/C(=C/c2cccc([N+](=O)[O-])c2)NC(=O)c2ccccc2)CC1,-10.2%

row,Compound,displacement
1,O=C(COC(=O)c1cccc(C#Cc2ccccc2)c1)c1ccc([N+](=O)[O-])cc1,9.9%
2,COc1ccc(CNCc2cccc(Cl)c2)cc1,-7.7%
3,Cc1cc(C)c(N2C(=O)NC(=O)/C(=C/c3ccc([N+](=O)[O-])o3)C2=O)c(C)c1,45%
4,O=C(Nc1ncccn1)c1sc2ccccc2c1Cl,5.9%
5,O=[N+]([O-])c1cccc(S(=O)(=O)Nc2ccc3c(c2)OCCO3)c1,0.7%
6,O=c1[nH]c(=O)n(Cc2ccc(F)cc2)c(O)c1/C=C1\C=Nc2ccccc21,51.3%
7,Cc1csc(-c2coc3cc(OCC(=O)O)cc(C)c3c2=O)n1,-2.5%
8,CCc1ccccc1NC(=O)c1ccc(I)cc1,7.5%
9,COc1ccc(N(CC(=O)NCCSc2ccccn2)S(=O)(=O)c2ccccc2)c(OC)c1,4.2%
10,O=C(Cc1ccccc1)Nc1ccc(-c2nnc(-c3ccco3)o2)cc1,18.5%
11,COc1ccc(N(CC(=O)Nc2ccccc2)S(C)(=O)=O)c(OC)c1,7.2%
12,CCOc1ccccc1/C=C1/C(=O)NN(c2ccc(C)c(C)c2)C1=O,15.4%
13,COc1ccc(C(NC(=O)c2ccccc2F)c2ccc(OC)c(OC)c2)cc1 (configuration not stated),-7%
14,CCc1ccc(NC(=O)C(=O)NCc2ccccc2Cl)cc1,3.3%
15,CCn1cc(C(=O)NN)c(=O)c2cc([N+](=O)[O-])ccc21,49.5%
16,O=C(CSc1nc2ccccc2o1)NCc1ccccc1,-6.7%
17,O=C(c1cc([N+](=O)[O-])ccc1F)N1CCN(c2cc(N3CCCCC3)c(F)cc2[N+](=O)[O-])CC1,-6.6%
18,CN(C)C(=O)c1sc2ccccc2c1Cl,7.8%
19,O=C(Nc1nnc(-c2ccc3c(c2)OCO3)s1)c1sc2ccccc2c1Cl,8%
20,C=CCn1c(O)c(/C=C2\C(C)=Nc3ccccc32)c(=O)[nH]c1=S,5.4%
21,O=C(NCCNc1ccc(Cl)cc1[N+](=O)[O-])c1ccc(F)cc1,-14.4%
22,O=C(CCN1C(=O)/C(=C\c2cccs2)SC1=S)N1CCCC1,-0.2%

row,Compound,displacement
1,COc1ccc2ccccc2c1/C=N/N1C(=O)C2C(C1=O)C1C=CC2C12CC2 (configuration not stated),6.6%
2,O=S(=O)(Nc1cccc(I)c1)c1ccc(Cl)cc1,-9.7%
3,COc1ccc(N(CC(=O)Nc2cc(OC)ccc2OC)S(C)(=O)=O)cc1,1.3%
4,NC(=O)CNC1CC(=O)N(c2ccc(Br)cc2)C1=O (configuration not stated),-4.1%
5,COc1ccc(NC2=C(Cl)C(=O)N(c3ccc(Br)cc3)C2=O)c(OC)c1,-16.3%
6,N#Cc1c(N)nc2c(c1-c1ccc3c(c1)OCO3)CCCCC2,-2.3%
7,Cn1cnnc1Sc1cc(N2CCOCC2)ccc1[N+](=O)[O-],7.8%
8,N#CCCNc1cc2ccccc2cc1C(=O)O,5.4%
9,COc1ccc([N+](=O)[O-])cc1NS(=O)(=O)c1ccc(NC(C)=O)cc1,5.2%
10,CCOc1ccccc1C(=O)Nc1nnc(CC)s1,7.5%
11,CCOc1ccccc1NC(=O)CN(c1c(C)cccc1C)S(C)(=O)=O,11.1%
12,Cc1sc(Nc2cccc(O)c2)nc1-c1ccccc1,7%
13,COc1ccc(C(=O)Nc2nc3ccc(C)cc3s2)cc1OC,-11.1%
14,COc1ccc(CN2CCN(C(=O)c3ccc(F)cc3)CC2)c(OC)c1OC,1.3%
15,O=C(CSc1nc2sc3c(c2c(=O)[nH]1)CCc1ccccc1-3)c1ccc(Cl)cc1,-4%
16,O=C1c2ccc3c4c(ccc(c24)C(=O)N1Nc1ccccc1)CC3,-6.8%
17,Cc1ccc(C(=O)Nc2ccc(I)cc2Cl)cc1[N+](=O)[O-],8.5%
18,O=S(=O)(c1ccc2ccccc2c1)N1CCN(C/C=C/c2ccccc2)CC1,-9.5%
19,Cc1cccc(C2C(=O)c3ccccc3C2=O)c1C,-8.6%
20,CC(=O)C(C(=O)c1ccccc1)C1(O)C(=O)Nc2ccccc21 (configuration not stated),8.1%
21,O=C(N/N=C\c1ccccc1Br)c1cnccn1,-2.2%
22,CCC1=NN2C(=N)/C(=C/c3ccc(OC(=O)c4ccc(F)cc4)c(OC)c3)C(=O)N=C2S1,-15.4%

row,Compound,displacement
1,CCc1c(C)sc(NC(=O)C2CCCCC2)c1C(=O)OC(C)C,-9.7%
2,O=C(CCNc1ccccc1)c1ccc([N+](=O)[O-])cc1,13.8%
3,COc1ccc(-c2[nH]ncc2C=O)cc1OC,-6.7%
4,COC(=O)c1ccc(NC(=O)c2cccc(Cl)c2Cl)cc1,-6.6%
5,O=C(Nc1cccc([N+](=O)[O-])c1)C1C(c2ccccc2)C1(Cl)Cl (configuration not stated),3.7%
6,COc1cc(/C=C2/SC(=S)N(C)C2=O)cc(Cl)c1OCc1ccccc1Cl,14.9%
7,CCCCNC(=O)NC(C(=O)OC)C12CC3CC(CC(C3)C1)C2 (configuration not stated),14.2%
8,Cc1ccc(/C=C(/C#N)C(=O)Nc2cccc(Br)c2)cc1[N+](=O)[O-],-15.1%
9,COc1cc2c(cc1OC)C(c1ccc([N+](=O)[O-])cc1)=NC(C)(C)C2,8.9%
10,Cc1sc2nc(-c3ccc([N+](=O)[O-])cc3)[nH]c(=O)c2c1C,-12.6%
11,CCOc1cccc(C(=O)Nc2cc(-c3nc4ccccc4[nH]3)ccc2C)c1,3.9%
12,C=CCc1ccc(OCC(O)CN2C(C)CCCC2C)c(OC)c1 (configuration not stated),-8.7%
13,COc1cccc(NC(=O)C2CC2(c2cccc(OC)c2)c2cccc(OC)c2)c1 (configuration not stated),-8.3%
14,COCCOC(=O)C1=C(C)NC(=S)NC1c1ccc(Cl)cc1 (configuration not stated),3.2%
15,NS(=O)(=O)c1cccc(NC(=O)c2sc3ccccc3c2Cl)c1,-0.1%
16,COC(=O)CNC(=O)CN(c1ccc(OC)cc1OC)S(=O)(=O)c1ccccc1,-5.1%
17,COc1cc(/C=N/Nc2nc(-c3ccccc3)c(-c3ccccc3)s2)ccc1O,-8.1%
18,C=CCc1cc(/C=C2\C(=O)NC(=O)N(c3cc(C)cc(C)c3)C2=O)cc(OCC)c1OCC(=O)OC,-5.3%
19,CC(C)C(=O)Nc1ccc(-c2nc3ncccc3o2)cc1,-3.1%
